# Laboratory results from PubChem BioAssay AID1030 (National Center for Advancing Translational Sciences (NCATS), 2008).
# Out of some 220,000 compounds screened, about 16,000 (7.3%) were called active. The inconclusive results got no clear call from the source; some entries with a clear call stand among them for comparison. Calls follow the shape of the dose curve; as a rule, active = well fitted inhibition curve with a large enough effect (not every such curve was filed as active); inconclusive = small, poorly fitted or top-dose-only effect, or another doubt; inactive = no such curve, though single readings can be large or run the other way. Potencies of inconclusive entries are left out as doubtful fits.
# Target: Aldehyde dehydrogenase 1A1 (Homo sapiens) (UniProt P00352)
# Chain of UniProt P00352 (P00352 whole entry, looked up): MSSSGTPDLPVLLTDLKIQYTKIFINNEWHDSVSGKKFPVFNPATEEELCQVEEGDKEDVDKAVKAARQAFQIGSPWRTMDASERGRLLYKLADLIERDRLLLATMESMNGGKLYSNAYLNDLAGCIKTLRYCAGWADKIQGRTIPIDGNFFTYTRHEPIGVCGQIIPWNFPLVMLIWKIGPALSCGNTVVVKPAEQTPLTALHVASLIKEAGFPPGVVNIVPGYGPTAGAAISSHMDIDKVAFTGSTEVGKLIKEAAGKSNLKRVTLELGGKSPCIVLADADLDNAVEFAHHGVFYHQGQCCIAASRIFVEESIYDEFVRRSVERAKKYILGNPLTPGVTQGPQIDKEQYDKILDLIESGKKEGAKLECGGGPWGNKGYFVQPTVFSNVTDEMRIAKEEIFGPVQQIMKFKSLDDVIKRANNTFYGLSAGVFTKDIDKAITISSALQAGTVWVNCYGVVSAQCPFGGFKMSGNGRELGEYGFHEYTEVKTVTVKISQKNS
# Assay: qHTS Assay for Inhibitors of Aldehyde Dehydrogenase 1 (ALDH1A1);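 as to activity, negative = inhibition: plate controls were no enzyme wells and a reference inhibitor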
# Settings: Purified ALDH1A1, NADH fluorescence, propionaldehyde substrate; series mostly up to 75.3 µM; activity, negative = inhibition: at the top concentration
# Potency is read from the fitted curve at half-maximal effect; tags tell the direction and shape of the fitted curve.
Structure (SMILES),Potency,"activity, negative = inhibition"
CCCc1cc(=O)[nH]c(SCC(=O)N2CCC(C(=O)OCC)CC2)n1,"inconclusive [inhibitor, single point]",
CCOC(=O)Cn1nnnc1CN(Cc1ccc(OC)cc1)Cc1cc2cc(CC)ccc2[nH]c1=O,"inconclusive [inhibitor, single point]",
O=C(N/N=C/c1ccc(O)cc1)c1ccc(COc2cc(Cl)ccc2Cl)o1,"inconclusive [inhibitor, partial curve]",
Cc1cc(=O)n(CC(=O)Nc2cc(Cl)ccc2C)c(C(C)C)n1,,inactive: -6.52%
CCCN1Cc2cccc(C(=O)Nc3cc(OC)cc(OC)c3)c2C1=O,"inconclusive [inhibitor, partial curve]",
CCOC(=O)C1=C(C)NC(=S)NC1c1cccs1 (centres undefined),active: 3.16 µM,
C=CCN(CC=C)S(=O)(=O)c1ccc2nc(NC(=O)C3CCCO3)sc2c1 (centres undefined),"inconclusive [inhibitor, single point]",
O=C(O)c1cc(-c2ccc(/C=N/Nc3ccc([N+](=O)[O-])cn3)o2)ccc1Cl,"inconclusive [inhibitor, single point]",
O=C(Oc1ccc(C(=S)N2CCOCC2)cc1)c1ccc(Br)cc1,,inactive: 10.3%
O=C(O)c1cccc(N2CCCC2=O)c1,"inconclusive [inhibitor, single point]",
COc1ccccc1/C=C\C(=O)OC[C@@H]1CCCN2CCCC[C@H]12,"inconclusive [inhibitor, partial curve]",
O=C(NCc1ccco1)/C(=C/c1cccc(C(F)(F)F)c1)c1nc2ccccc2[nH]1,"inconclusive [inhibitor, single point]",
O=C1C2CCCCC2C(=O)N1c1ccc(NC2CCCCC2)c([N+](=O)[O-])c1 (centres undefined),active: 10 µM,
COC(=O)c1ccccc1NC(=O)NCc1cccnc1,"inconclusive [inhibitor, single point]",
COc1cc(N/N=C/c2ccccc2O)ncn1,,inactive: 11.2%
CN(C)S(=O)(=O)c1cccc(C(=O)NC2CCCc3ccccc32)c1 (centres undefined),,inactive: -4.82%
Cc1ccc(O)c(NC(=O)CCCC(=O)O)c1,,inactive: 12%
C=CCOC(=O)C1=C[C@@H](c2ccc(Br)cc2)C[C@@H](OCc2ccc(CO)cc2)O1,active: 17.8 µM,
O=C(O)c1cccnc1SCc1cn2cc(Cl)ccc2n1,"inconclusive [inhibitor, single point]",
CC(NC(=O)CC1Nc2ccccc2NC1=O)c1ccccc1 (centres undefined),"inconclusive [inhibitor, single point]",
Cc1ccc(-c2nn(C)c(=O)c3ccccc23)cc1CNC(=O)c1ccco1,,inactive: 1.62%
NC1=NC(=O)CC(C(=O)NCCc2ccccc2)S1 (centres undefined),active: 12.6 µM,
CN(C)c1ccc(/C=C2\NC(=S)N(Cc3ccccc3)C2=O)cc1,active: 11.2 µM,

Structure (SMILES),Potency,"activity, negative = inhibition"
COc1ccc(/C=N/NC(=O)c2ccc(N(C)S(=O)(=O)c3ccccc3)cc2)cc1OC,"inconclusive [inhibitor, single point]",
C=CCn1c(SCC(=O)NCC2CCCO2)nc2scc(-c3ccco3)c2c1=O (centres undefined),active: 25.1 µM,
CC(C)CN1C(=O)/C(=C(/C#N)C(=O)NC2CCCCC2)c2ccccc21,active: 5.01 µM,
CCOc1cc(NC(=S)Nc2cccc(OC)c2)c(OCC)cc1NC(=O)c1ccc(C)cc1,"inconclusive [inhibitor, single point]",
CCOc1ccc(OCc2ccc(C(=O)N3CCc4ccccc4C3)o2)cc1,"inconclusive [inhibitor, single point]",
O=c1c(O)c(-c2ccc(O)c(O)c2)oc2c(OC[C@@H]3O[C@@H](O)[C@@H](O)[C@H](O)[C@H]3O)c(O)cc(O)c12,"inconclusive [inhibitor, single point]",
CCOc1ccccc1-n1c(SCC(=O)NC2CCCC2)nnc1-c1ccoc1C,"inconclusive [inhibitor, single point]",
CC(OC(=O)c1ccc(Cl)nc1)C(=O)NC(C)(C)C (centres undefined),,inactive: 6.29%
Cc1c(-c2ccccc2)oc2c(C(=O)N3CCN(c4ccc([N+](=O)[O-])cc4)CC3)cccc2c1=O,active: 3.55 µM,
CN(C)S(=O)(=O)c1cccc(NC(=O)COC(=O)/C=C/c2ccc([N+](=O)[O-])cc2)c1,"inconclusive [inhibitor, single point]",
COc1cccc(N2CCN(c3ncnc4c3cnn4-c3ccc(C)cc3C)CC2)c1,"inconclusive [inhibitor, partial curve]",
O=C(COC(=O)c1ccccc1Br)Nc1ccccc1F,"inconclusive [inhibitor, single point]",
Cc1csc(NC(=O)c2cc(-c3ccccc3)nc3ccccc23)n1,,inactive: -4.06%
Cc1ccsc1-c1nc(CN2CCCC2c2ccc(F)cc2)c(C)o1 (centres undefined),"inconclusive [inhibitor, single point]",
Nc1cc(CN2C(=O)c3ccccc3C2=O)cc(Cl)c1O,"inconclusive [inhibitor, single point]",
O=C(NCCOc1nc(N2CCCCC2)nc(N2CCOCC2)n1)Nc1ccccc1,active: 8.91 µM,
COc1cccc(-c2cn3nc4c(nc3n2)CCCC4)c1,"inconclusive [inhibitor, partial curve]",
Cc1sc(NC(=O)c2ccco2)c(C(c2ccccc2)N2CCC(C)CC2)c1C (centres undefined),"inconclusive [inhibitor, partial curve]",
COc1cc(NC(=O)CN2CCN(c3ccccc3O)CC2)c(C)cc1[N+](=O)[O-],"inconclusive [inhibitor, full curve]",
COCCNC(=O)c1cccc(NS(=O)(=O)c2cccc3cccnc23)c1,"inconclusive [inhibitor, single point]",
O=C(Nc1cccc(-c2nnn(CC(=O)N3CCc4ccccc4C3)n2)c1)C1CCC1,"inconclusive [inhibitor, single point]",
Cc1ccccc1-n1c(SCC(=O)N2CCCC2)nnc1-c1ccccn1,,inactive: -18.2%
COC(=O)c1ccccc1NC(=O)NC1CCCC1,"inconclusive [inhibitor, single point]",

Structure (SMILES),Potency,"activity, negative = inhibition"
Cc1cc(=O)oc(C)c1C(=O)OC(C(=O)c1ccccc1)c1ccccc1 (centres undefined),"inconclusive [inhibitor, single point]",
O=C(c1cc2nc(-c3ccccc3)cc(-c3ccccc3)n2n1)N1CCCC1,"inconclusive [inhibitor, partial curve]",
CCCCc1ccc(NC(=S)NCCc2ccc(F)cc2)cc1,"inconclusive [inhibitor, partial curve]",
O=C(/C=C/c1ccccc1)N1CCN(CCN2C(=O)c3cccc4cccc(c34)C2=O)CC1,"inconclusive [inhibitor, single point]",
Cc1ccc(C(=O)Nc2nnc(-c3ccncc3)s2)o1,"inconclusive [inhibitor, single point]",
O=C(c1ccc(F)cc1)N1CCN(c2cc(=O)[nH]nc2-c2ccccc2)CC1,,inactive: -7.2%
c1ccc(-c2ccccc2OCCN2CCCCC2)cc1,,inactive: -5.53%
Cc1cc(=O)[nH]c(SCC(=O)Nc2ccc(S(=O)(=O)N3CCCCC3)cc2)n1,"inconclusive [inhibitor, single point]",
CC(=O)NC(=S)NNC(=O)COc1ccc(Br)cc1,active: 17.8 µM,
CCNc1ncc2nc(-c3ccccc3)c(=O)n(CCOC)c2n1,"inconclusive [inhibitor, partial curve]",
CN1CCN(C(=O)c2cn(C)c3ccc(S(=O)(=O)N(C)C4CCCCC4)cc3c2=O)CC1,"inconclusive [inhibitor, single point]",
Cc1c(N=C2SCC(=O)N2c2c(C)n(C)n(-c3ccccc3)c2=O)c(=O)n(-c2ccccc2)n1C,"inconclusive [inhibitor, single point]",
CCOC(=O)Cc1csc(NC(=O)C(NC(=O)C2CCCCC2)C(C)C)n1 (centres undefined),,inactive: 4.66%
CC(C)c1ccc(/C=C/C(=O)Nc2ccc(CN3CCOCC3)cc2)cc1,"inconclusive [inhibitor, single point]",
CCCC1OC23CCCCC2C(C#N)(C#N)C1(C#N)C(=N)O3 (centres undefined),"inconclusive [inhibitor, partial curve]",
CC(Nc1ccc(N2CCOCC2)cc1)C(=O)N1c2ccccc2CC1C (centres undefined),"inconclusive [inhibitor, single point]",
COCCOC(=O)C1=C(C)N(c2ccccc2)C(=O)NC1c1cccc([N+](=O)[O-])c1 (centres undefined),"inconclusive [inhibitor, single point]",
O=C1CC(SC2=NCCS2)C(=O)N1c1ccc(Br)cc1 (centres undefined),active: 7.94 µM,
N/C(=N\OC(=O)COc1ccc(Br)cc1Cl)c1ccccn1,"inconclusive [inhibitor, single point]",
CCOC(=O)Cc1cn2c(=O)cc(CSCC(=O)Nc3ccc(C)c(C)c3)nc2s1,"inconclusive [inhibitor, single point]",
O=S(=O)(Nc1cccc(CO)c1)c1cccs1,"inconclusive [inhibitor, single point]",
O=[N+]([O-])c1ccc(N2CCCCC2)nc1N1CCCCC1,active: 0.316 µM,
O=C(NCc1ccc(F)cc1)C1CCN(S(=O)(=O)N2CCCCC2)CC1,"inconclusive [inhibitor, partial curve]",
